# According to the supplement of paper PMC12217912:
# This is one part of the list. Sequences were assembled here from the parent chain. Inactive controls read about 0.05.
# B1: TEV protease; numbered along this chain (parent)
# chain: MGESLFKGPRDYNPISSSICHLTNESDGHTTSLYGIGFGPFIITNKHLFRRNNGTLVVQSLHGVFKVKDTTTLQQHLVDGRDMIIIRMPKDFPPFPQKLKFREPQREERICLVTTNFQTKSMSSMVSDTSCTFPSGDGIFWKHWIQTKDGQCGSPLVSTRDGFIVGIHSASNFTNTNNYFTSVPKNFMELLTNQEAQQWVSGWRLNADSVLWGGHKVFMVKPEEPFQPVKEATQL
# Variants of: B1
# Experiment: raw area under fraction-flipped curve 0-4 h after induction (AUC4h, not background-subtracted), DNA-recorder readout of cleavage of the substrate (dimensionless); higher = more cleavage of the substrate by the protease variant
# Details: temperature: 34 °C; time window: 0-4 h after rhamnose induction
# 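Further: Bxb1 expression induced with 0.2% (w/v) L-rhamnose at OD600 near 0.5, cultures sampled hourly, flipped fraction per protease–substrate barcode pair counted by paired-end Illumina sequencing.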
variant,measurement,value
M125I,area with substrate ENLYHQS,0.0435
same,area with substrate ENLYLQS,0.124
same,area with substrate ENLYNQS,0.0691
same,area with substrate ENLYPQS,0.0664
same,area with substrate ENLYQQS,0.0657
same,area with substrate ENLYVQS,0.127
N116H,area with substrate ENLYHQS,0.0637
same,area with substrate ENLYIQS,0.117
same,area with substrate ENLYLQS,0.0783
same,area with substrate ENLYPQS,0.0744
same,area with substrate ENLYQQS,0.0615
same,area with substrate ENLYTQS,0.0932
same,area with substrate ENLYVQS,0.105
P134N,area with substrate ENLYEQS,0.0648
same,area with substrate ENLYHQS,0.046
same,area with substrate ENLYKQS,0.0653
same,area with substrate ENLYLQS,0.0756
same,area with substrate ENLYMQS,0.0764
same,area with substrate ENLYNQS,0.0592
same,area with substrate ENLYPQS,0.068
same,area with substrate ENLYQQS,0.045
same,area with substrate ENLYTQS,0.0631
same,area with substrate ENLYVQS,0.0898
same,area with substrate ENLYWQS,0.0669
N178K,area with substrate ENLYEQS,0.0779
same,area with substrate ENLYGQS,0.0681
same,area with substrate ENLYHQS,0.0692
same,area with substrate ENLYIQS,0.126
same,area with substrate ENLYLQS,0.119
same,area with substrate ENLYNQS,0.0684
same,area with substrate ENLYPQS,0.0672
same,area with substrate ENLYQQS,0.0368
same,area with substrate ENLYRQS,0.0759
same,area with substrate ENLYSQS,0.082
same,area with substrate ENLYWQS,0.0667
same,area with substrate ENLYYQS,0.064
N178D,area with substrate ENLYHQS,0.0928
same,area with substrate ENLYKQS,0.0655
same,area with substrate ENLYMQS,0.0607
same,area with substrate ENLYPQS,0.0519
same,area with substrate ENLYQQS,0.0572
same,area with substrate ENLYRQS,0.0459
same,area with substrate ENLYSQS,0.0733
same,area with substrate ENLYWQS,0.0549
N178H,area with substrate ENLYEQS,0.0671
same,area with substrate ENLYGQS,0.0688
same,area with substrate ENLYHQS,0.0643
same,area with substrate ENLYIQS,0.136
same,area with substrate ENLYKQS,0.068
same,area with substrate ENLYLQS,0.0657
same,area with substrate ENLYPQS,0.0672
same,area with substrate ENLYTQS,0.0841
same,area with substrate ENLYWQS,0.108
S171A,area with substrate ENLYHQS,0.0865
same,area with substrate ENLYIQS,0.107
same,area with substrate ENLYKQS,0.0737
same,area with substrate ENLYMQS,0.0829
same,area with substrate ENLYPQS,0.0717
same,area with substrate ENLYRQS,0.0563
same,area with substrate ENLYVQS,0.0926
S171Q,area with substrate ENLYGQS,0.0381
same,area with substrate ENLYHQS,0.0418
same,area with substrate ENLYIQS,0.0777
same,area with substrate ENLYNQS,0.0681
same,area with substrate ENLYRQS,0.0722
same,area with substrate ENLYWQS,0.0485
Q59L,area with substrate ENLYEQS,0.0697
same,area with substrate ENLYGQS,0.0623
same,area with substrate ENLYIQS,0.112
same,area with substrate ENLYNQS,0.06
same,area with substrate ENLYPQS,0.0791
same,area with substrate ENLYRQS,0.0579
same,area with substrate ENLYTQS,0.0499
T70N,area with substrate ENLYEQS,0.0563
same,area with substrate ENLYIQS,0.0729
same,area with substrate ENLYNQS,0.0602
same,area with substrate ENLYQQS,0.0525
same,area with substrate ENLYVQS,0.0772
same,area with substrate ENLYWQS,0.0667
same,area with substrate ENLYYQS,0.0266
S154Y,area with substrate ENLYEQS,0.12
same,area with substrate ENLYHQS,0.0434
same,area with substrate ENLYIQS,0.102
same,area with substrate ENLYKQS,0.0399
same,area with substrate ENLYLQS,0.0737
same,area with substrate ENLYMQS,0.0792
same,area with substrate ENLYRQS,0.0544
same,area with substrate ENLYSQS,0.0755
same,area with substrate ENLYVQS,0.117
F218M,area with substrate ENLYDQS,0.0631
same,area with substrate ENLYEQS,0.061
same,area with substrate ENLYMQS,0.0787
same,area with substrate ENLYNQS,0.0552
same,area with substrate ENLYRQS,0.0629
same,area with substrate ENLYWQS,0.0468
V217F,area with substrate ENLYEQS,0.0668
same,area with substrate ENLYGQS,0.0783
same,area with substrate ENLYHQS,0.0762
same,area with substrate ENLYMQS,0.0602
same,area with substrate ENLYNQS,0.0588
same,area with substrate ENLYQQS,0.0587
same,area with substrate ENLYRQS,0.0734
same,area with substrate ENLYSQS,0.0771
same,area with substrate ENLYWQS,0.035
V217S,area with substrate ENLYEQS,0.0515
same,area with substrate ENLYGQS,0.046
same,area with substrate ENLYHQS,0.0514
same,area with substrate ENLYKQS,0.0679
same,area with substrate ENLYLQS,0.0373
same,area with substrate ENLYNQS,0.0723
same,area with substrate ENLYPQS,0.0559
same,area with substrate ENLYQQS,0.0782
same,area with substrate ENLYRQS,0.0603
same,area with substrate ENLYSQS,0.0575
same,area with substrate ENLYVQS,0.0541
same,area with substrate ENLYWQS,0.0573
same,area with substrate ENLYYQS,0.0544
D149L,area with substrate ENLYEQS,0.0639
same,area with substrate ENLYGQS,0.0699
same,area with substrate ENLYHQS,0.0737
same,area with substrate ENLYIQS,0.0828
same,area with substrate ENLYKQS,0.0782
same,area with substrate ENLYMQS,0.0593
same,area with substrate ENLYPQS,0.0688
same,area with substrate ENLYQQS,0.0607
same,area with substrate ENLYTQS,0.0683
A207G,area with substrate ENLYEQS,0.0723
same,area with substrate ENLYGQS,0.0698
same,area with substrate ENLYHQS,0.0765
same,area with substrate ENLYIQS,0.134
same,area with substrate ENLYMQS,0.0922
same,area with substrate ENLYNQS,0.0782
same,area with substrate ENLYRQS,0.0672
same,area with substrate ENLYTQS,0.121
same,area with substrate ENLYVQS,0.115
E231F,area with substrate ENLYDQS,0.0644
same,area with substrate ENLYEQS,0.061
same,area with substrate ENLYGQS,0.0486
same,area with substrate ENLYHQS,0.0574
same,area with substrate ENLYKQS,0.0695
same,area with substrate ENLYLQS,0.08
same,area with substrate ENLYMQS,0.0716
same,area with substrate ENLYNQS,0.049
same,area with substrate ENLYPQS,0.0718
same,area with substrate ENLYQQS,0.0618
same,area with substrate ENLYSQS,0.0629
same,area with substrate ENLYVQS,0.133
same,area with substrate ENLYWQS,0.084
same,area with substrate ENLYYQS,0.0676
D69K,area with substrate ENLYEQS,0.059
same,area with substrate ENLYGQS,0.0647
same,area with substrate ENLYHQS,0.0634
same,area with substrate ENLYIQS,0.0889
same,area with substrate ENLYMQS,0.0616
same,area with substrate ENLYRQS,0.0631
L211A,area with substrate ENLYEQS,0.0551
same,area with substrate ENLYHQS,0.0726
same,area with substrate ENLYIQS,0.116
same,area with substrate ENLYKQS,0.0721
same,area with substrate ENLYMQS,0.095
same,area with substrate ENLYNQS,0.0812
same,area with substrate ENLYPQS,0.0292
same,area with substrate ENLYSQS,0.0823
same,area with substrate ENLYWQS,0.0736
Q197T,area with substrate ENLYEQS,0.0609
same,area with substrate ENLYHQS,0.0829
same,area with substrate ENLYMQS,0.08
same,area with substrate ENLYNQS,0.0604
same,area with substrate ENLYPQS,0.0687
same,area with substrate ENLYTQS,0.0959
same,area with substrate ENLYYQS,0.0678
F140T,area with substrate ENLYGQS,0.0655
same,area with substrate ENLYHQS,0.0544
same,area with substrate ENLYIQS,0.107
same,area with substrate ENLYKQS,0.0394
same,area with substrate ENLYLQS,0.0715
same,area with substrate ENLYNQS,0.0735
same,area with substrate ENLYPQS,0.0447
same,area with substrate ENLYSQS,0.069
same,area with substrate ENLYWQS,0.0419
K230Y,area with substrate ENLYDQS,0.0627
same,area with substrate ENLYEQS,0.0531
same,area with substrate ENLYHQS,0.0624
same,area with substrate ENLYKQS,0.0469
same,area with substrate ENLYNQS,0.0755
same,area with substrate ENLYQQS,0.0592
same,area with substrate ENLYRQS,0.0586
same,area with substrate ENLYSQS,0.0627
same,area with substrate ENLYWQS,0.0744
T159D,area with substrate ENLYGQS,0.0364
same,area with substrate ENLYHQS,0.0848
same,area with substrate ENLYKQS,0.0842
same,area with substrate ENLYRQS,0.0822
T159N,area with substrate ENLYGQS,0.0675
same,area with substrate ENLYHQS,0.0563
same,area with substrate ENLYIQS,0.107
same,area with substrate ENLYMQS,0.0704
same,area with substrate ENLYQQS,0.0589
same,area with substrate ENLYVQS,0.141
same,area with substrate ENLYWQS,0.0789
L99G,area with substrate ENLYIQS,0.105
same,area with substrate ENLYNQS,0.0716
same,area with substrate ENLYPQS,0.067
same,area with substrate ENLYSQS,0.0735
same,area with substrate ENLYTQS,0.0678
same,area with substrate ENLYWQS,0.0677
same,area with substrate ENLYYQS,0.0478
F95D,area with substrate ENLYEQS,0.0526
same,area with substrate ENLYIQS,0.0508
same,area with substrate ENLYNQS,0.0548
L235K,area with substrate ENLYEQS,0.051
same,area with substrate ENLYIQS,0.146
same,area with substrate ENLYKQS,0.05
same,area with substrate ENLYLQS,0.0992
same,area with substrate ENLYMQS,0.092
same,area with substrate ENLYNQS,0.0708
same,area with substrate ENLYPQS,0.0731
same,area with substrate ENLYSQS,0.0718
same,area with substrate ENLYVQS,0.125
same,area with substrate ENLYWQS,0.0884
L73K,area with substrate ENLYGQS,0.0669
same,area with substrate ENLYHQS,0.0601
same,area with substrate ENLYIQS,0.0502
same,area with substrate ENLYKQS,0.0179
same,area with substrate ENLYMQS,0.0505
same,area with substrate ENLYNQS,0.0312
same,area with substrate ENLYRQS,0.0615
same,area with substrate ENLYVQS,0.0568
same,area with substrate ENLYWQS,0.08
P89M,area with substrate ENLYEQS,0.0556
same,area with substrate ENLYHQS,0.0605
same,area with substrate ENLYKQS,0.0403
same,area with substrate ENLYMQS,0.055
same,area with substrate ENLYNQS,0.0601
same,area with substrate ENLYPQS,0.071
same,area with substrate ENLYQQS,0.0449
same,area with substrate ENLYSQS,0.0528
same,area with substrate ENLYVQS,0.0747
same,area with substrate ENLYWQS,0.0676
V58N,area with substrate ENLYEQS,0.0669
same,area with substrate ENLYHQS,0.0503
same,area with substrate ENLYIQS,0.0655
same,area with substrate ENLYKQS,0.0429
same,area with substrate ENLYNQS,0.0492
same,area with substrate ENLYQQS,0.0526
same,area with substrate ENLYSQS,0.0386
V58H,area with substrate ENLYKQS,0.0397
same,area with substrate ENLYNQS,0.046
same,area with substrate ENLYQQS,0.048
same,area with substrate ENLYRQS,0.0699
same,area with substrate ENLYSQS,0.0703
T129G,area with substrate ENLYEQS,0.101
same,area with substrate ENLYHQS,0.0731
same,area with substrate ENLYNQS,0.0834
same,area with substrate ENLYQQS,0.0639
same,area with substrate ENLYRQS,0.0817
same,area with substrate ENLYSQS,0.057
same,area with substrate ENLYTQS,0.0773
P228M,area with substrate ENLYDQS,0.0518
same,area with substrate ENLYEQS,0.0574
same,area with substrate ENLYHQS,0.0666
same,area with substrate ENLYKQS,0.0529
same,area with substrate ENLYLQS,0.116
same,area with substrate ENLYMQS,0.0743
same,area with substrate ENLYNQS,0.0566
same,area with substrate ENLYQQS,0.0314
same,area with substrate ENLYVQS,0.104
I84T,area with substrate ENLYEQS,0.0571
same,area with substrate ENLYHQS,0.0416
same,area with substrate ENLYIQS,0.117
same,area with substrate ENLYKQS,0.065
same,area with substrate ENLYMQS,0.0615
same,area with substrate ENLYNQS,0.0511
same,area with substrate ENLYPQS,0.0612
I86L,area with substrate ENLYEQS,0.0624
same,area with substrate ENLYMQS,0.0778
same,area with substrate ENLYNQS,0.065
same,area with substrate ENLYQQS,0.0552
same,area with substrate ENLYTQS,0.0896
same,area with substrate ENLYVQS,0.13
E224G,area with substrate ENLYEQS,0.0913
same,area with substrate ENLYGQS,0.0573
same,area with substrate ENLYIQS,0.0881
same,area with substrate ENLYKQS,0.0471
same,area with substrate ENLYLQS,0.0856
same,area with substrate ENLYRQS,0.0538
same,area with substrate ENLYSQS,0.0677
same,area with substrate ENLYWQS,0.0661
same,area with substrate ENLYYQS,0.0726
R160L,area with substrate ENLYHQS,0.0608
same,area with substrate ENLYKQS,0.069
same,area with substrate ENLYMQS,0.0977
same,area with substrate ENLYRQS,0.0663
same,area with substrate ENLYWQS,0.0806
same,area with substrate ENLYYQS,0.0535
